Measured values reported in patent publication CN110922489A (BEIJING KANGPUMEITE INNOVATION MEDICINE TECH CO LTD, dated 2020).

Experiments:
人C3dg-生物素 [1] = target: T1, 人C3dg-生物素 (human, UniProt P01024 part only, biotin label (生物素标记), site not stated); assay: SPR (BIAcore 3000), C3dg-biotin captured on streptavidin chip, analyte 15.6-500 nmol/L, 1:1 model
T1 construct: domain: C3dg; Captured on a BIAcore streptavidin sensor chip; also called 生物素标记的C3dg

人C3dg-生物素 [2] = target: T1, 人C3dg-生物素; assay: SPR (BIAcore 3000), C3dg-biotin captured on streptavidin chip, 1:1 model
T1 sequence (P01024 955-1303 limits assumed): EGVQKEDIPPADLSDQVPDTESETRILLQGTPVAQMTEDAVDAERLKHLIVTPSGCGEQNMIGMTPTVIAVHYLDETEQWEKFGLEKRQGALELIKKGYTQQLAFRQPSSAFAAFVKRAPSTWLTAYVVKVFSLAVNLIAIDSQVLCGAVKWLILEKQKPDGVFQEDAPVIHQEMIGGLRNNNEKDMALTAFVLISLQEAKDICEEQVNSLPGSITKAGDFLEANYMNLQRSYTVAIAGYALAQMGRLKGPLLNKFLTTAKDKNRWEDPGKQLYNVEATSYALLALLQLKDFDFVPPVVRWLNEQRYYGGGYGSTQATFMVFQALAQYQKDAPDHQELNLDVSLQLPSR

binding result (人C3dg-生物素 [1])	binding result (人C3dg-生物素 [2])	Binder
binds	–	抗C3d单链抗体-CD59(ScFv-CD59)融合蛋白 (other, Secreted from CHO-K1 cells, about 36 kDa; also called C3d-ScFV-CD59) MASYELTQPPSVSVAPGQTARITCSGDALGDKYASWYQQKPGQAPVLVIYEDSKRPSGIPERFSGSNSGNTATLTISGTQAEDEADYYCQSQAGAVVGVFGGGTKLTVLGSGGSTITSYNVYYTKLSSSGS[no letters for about 100 residues]GSVNHGVDFWGQGTLVTVSSAGGGSGGGGSLQCYNCPNPTADCKTAVNCSSDFDACLITKAGLQVYNKCWKFEHCNFNDVTTRLRENELTYYCCKKDLCNFNEQLEN
–	binds	抗C3d单链抗体 V L -Linker-V H (ScFv) (scFv, Expressed in CHO cells from pEE14.1, about 26 kD) scFv: MASYELTQPPSVSVAPGQTARITCSGDALGDKYASWYQQKPGQAPVLVIYEDSKRPSGIPERFSGSNSGNTATLTISGTQAEDEADYYCQSQAGAVVGVFGGGTKLTVLGSGGSTITSYNVYYTKLSSSGS[no letters for about 100 residues]GSVNHGVDFWGQGTLVTVSSA
